# B1: 64M51: mouse hybridoma monoclonal anti-Jagged antibody, ATCC PTA-10468; heavy chain SEQ ID NO:1, light chain SEQ ID NO:3 (antibody)
# heavy: MECSWVILFLLSGTAGVHCQVQLKQSGAELVRPGTSVKLSCKTSGYIFTSYWIHWVKQRSGQGLEWIARIYPGIGSTYYNEKFKDKATLTADKSSSTAYMQLSSLKSEDSAVYFCAKNGGFFDYWGQGTTLTVSSAKTTPPSVYPLAPGSAAQTNSMVTLGCLVKGYFPEPVTVTWNSGSLSSGVHTFPAVLQSDLYTLSSSVTVPSSTWPSQTVTCNVAHPASSTKVDKKIVPRDCGCKPCICTVPEVSSVFIFPPKPKDVLTITLTPKVTCVVVDISKDDPEVQFSWFVDDVEVHTAQTKPREEQFNSTFRSVSELPIMHQDWLNGKEFKCRVNSAAFPAPIEKTISKTKGRPKAPQVYTIPPPKEQMAKDKVSLTCMITDFFPEDITVEWQWNGQPAENYKNTQPIMDTDGSYFVYSKLNVQKSNWEAGNTFTCSVLHEGLHNHHTEKSLSHSPGK
# light: MVLMLLLLWVPGSTGDIVLTQSPASLAVSLGQRATISCRASESVDSYGNSFMHWYQQKPGQPPKLLIYRASNLESGIPARFSGSGSRTDFTLTINPVEADDVATYYCQQSNEDPWTFGGGTKLEIKRADAAPTVSIFPPSSEQLTSGGASVVCFLNNFYPKDINVKWKIDGSERQNGVLNSWTDQDSKDSTYSMSSTLTLTKDEYERHNSYTCEATHKTSTSPIVKSFNRNEC
# modifications: 64M51 Heavy chain; 64M51 Light chain
# Tests used:
# human Jagged1 [1] = target: T1, human Jagged1 (Homo sapiens, UniProt P78504); test: FACS binding to Jagged-transfected HEK293 cells; conditions: HEK293 cells expressing human Jagged1; antibody 10 μg/ml; FIG. 1
# T1 construct: expression vectors encoding full-length cDNA for human Jagged1 or Jagged2; expressed in transfected cells; host or cells: HEK293
# T1 sequence (P78504 34-1218): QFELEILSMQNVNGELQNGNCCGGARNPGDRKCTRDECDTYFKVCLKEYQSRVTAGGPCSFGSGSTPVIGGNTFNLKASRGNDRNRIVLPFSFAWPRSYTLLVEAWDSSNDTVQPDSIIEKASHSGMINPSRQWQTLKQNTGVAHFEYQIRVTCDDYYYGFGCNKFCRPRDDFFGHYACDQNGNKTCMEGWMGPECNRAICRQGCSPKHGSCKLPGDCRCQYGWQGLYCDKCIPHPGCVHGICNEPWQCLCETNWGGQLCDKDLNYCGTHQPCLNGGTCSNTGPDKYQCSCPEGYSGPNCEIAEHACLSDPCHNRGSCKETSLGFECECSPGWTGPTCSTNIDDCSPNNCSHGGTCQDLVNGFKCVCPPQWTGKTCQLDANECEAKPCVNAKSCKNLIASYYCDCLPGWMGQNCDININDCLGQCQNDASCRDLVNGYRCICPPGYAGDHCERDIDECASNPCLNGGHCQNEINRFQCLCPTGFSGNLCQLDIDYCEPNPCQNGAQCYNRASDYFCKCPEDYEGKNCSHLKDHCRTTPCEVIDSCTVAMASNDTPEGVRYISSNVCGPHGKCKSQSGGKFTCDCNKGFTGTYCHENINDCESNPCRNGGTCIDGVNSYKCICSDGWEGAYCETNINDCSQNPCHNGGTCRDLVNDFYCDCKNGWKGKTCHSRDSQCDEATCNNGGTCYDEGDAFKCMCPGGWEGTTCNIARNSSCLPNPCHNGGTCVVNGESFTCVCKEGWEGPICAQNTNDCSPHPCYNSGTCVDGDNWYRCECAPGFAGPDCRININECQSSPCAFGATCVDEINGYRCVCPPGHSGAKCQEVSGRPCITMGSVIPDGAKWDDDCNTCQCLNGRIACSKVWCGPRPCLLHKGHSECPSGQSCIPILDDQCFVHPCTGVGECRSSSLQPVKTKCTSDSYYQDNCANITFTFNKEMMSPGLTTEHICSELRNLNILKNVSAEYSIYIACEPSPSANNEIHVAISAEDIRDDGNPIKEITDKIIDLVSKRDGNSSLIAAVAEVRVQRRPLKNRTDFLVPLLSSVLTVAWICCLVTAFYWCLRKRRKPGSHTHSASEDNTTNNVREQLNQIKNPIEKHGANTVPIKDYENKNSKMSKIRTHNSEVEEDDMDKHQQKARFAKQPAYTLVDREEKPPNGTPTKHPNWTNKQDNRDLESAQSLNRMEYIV
# Method: (§1) Human HEK293 cells were co-transfected with expression vectors encoding (1) full-length cDNA for human Jagged1 or Jagged2 and (2) the transfection marker GFP. Twenty-four to forty-eight hours post-transfection, cells were collected in suspension and incubated on ice with anti-Jagged antibodies (10 μg/ml unless otherwise indicated) or control IgG to detect background antibody binding. The cells were washed in PBS and bound antibodies were detected with PE-conjugated anti-human Fc secondary antibodies. Labeled cells were analyzed by flow cytometry to identify anti-Jagged antibodies that specifically recognized cell surface expression of Jagged protein. Several monoclonal antibodies that recognized Jagged1 were identified and included antibodies 64M51, 64R7 and 64R1B.
# human Jagged2 [2] = target: T2, human Jagged2 (Homo sapiens, UniProt Q9Y219, E501K); test: FACS binding to Jagged-transfected HEK293 cells; conditions: HEK293 cells expressing human Jagged2; antibody 10 μg/ml; FIG. 1
# T2 construct: expression vectors encoding full-length cDNA for human Jagged1 or Jagged2; expressed in transfected cells; host or cells: HEK293
# T2 sequence (Q9Y219 24-1238 E501K): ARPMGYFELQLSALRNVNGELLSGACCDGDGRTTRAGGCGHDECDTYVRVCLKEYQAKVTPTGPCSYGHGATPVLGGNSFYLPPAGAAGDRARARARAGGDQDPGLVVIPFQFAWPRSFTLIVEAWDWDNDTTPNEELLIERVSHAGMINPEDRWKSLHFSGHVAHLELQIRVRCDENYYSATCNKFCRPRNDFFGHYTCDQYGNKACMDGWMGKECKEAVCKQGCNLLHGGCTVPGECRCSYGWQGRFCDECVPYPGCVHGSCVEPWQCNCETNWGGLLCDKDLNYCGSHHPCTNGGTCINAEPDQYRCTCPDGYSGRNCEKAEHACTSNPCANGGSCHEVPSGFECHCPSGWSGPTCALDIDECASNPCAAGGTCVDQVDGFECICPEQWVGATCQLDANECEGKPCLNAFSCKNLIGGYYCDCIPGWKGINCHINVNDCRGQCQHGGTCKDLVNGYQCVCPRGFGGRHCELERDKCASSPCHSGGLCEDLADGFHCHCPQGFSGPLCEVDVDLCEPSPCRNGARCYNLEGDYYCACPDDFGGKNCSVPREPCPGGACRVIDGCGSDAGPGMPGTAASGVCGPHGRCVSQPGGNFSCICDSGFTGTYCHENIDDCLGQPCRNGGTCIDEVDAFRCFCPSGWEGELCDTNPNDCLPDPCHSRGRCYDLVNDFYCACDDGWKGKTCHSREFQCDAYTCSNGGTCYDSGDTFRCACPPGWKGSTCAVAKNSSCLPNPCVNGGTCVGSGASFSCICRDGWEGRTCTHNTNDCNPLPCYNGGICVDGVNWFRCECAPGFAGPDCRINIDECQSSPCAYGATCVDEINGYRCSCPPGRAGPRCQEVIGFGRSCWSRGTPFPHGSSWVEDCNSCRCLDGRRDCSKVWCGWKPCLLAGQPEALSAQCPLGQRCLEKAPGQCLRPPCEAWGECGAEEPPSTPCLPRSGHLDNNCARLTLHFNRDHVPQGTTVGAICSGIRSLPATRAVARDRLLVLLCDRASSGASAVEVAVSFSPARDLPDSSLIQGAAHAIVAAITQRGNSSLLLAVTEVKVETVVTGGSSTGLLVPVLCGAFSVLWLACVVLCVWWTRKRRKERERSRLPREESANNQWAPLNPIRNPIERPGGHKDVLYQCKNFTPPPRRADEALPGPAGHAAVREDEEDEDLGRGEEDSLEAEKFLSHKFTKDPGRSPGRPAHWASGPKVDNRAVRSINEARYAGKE
# Method: as §1
# mouse Jagged1 = target: T3, mouse Jagged1 (Mus musculus, UniProt Q9QXX0); test: FACS binding to Jagged-transfected HEK293 cells; conditions: HEK293 cells expressing mouse Jagged1; FIG. 1
# T3 construct: expressed in transfected cells; host or cells: HEK293
# T3 sequence (Q9QXX0 34-1218): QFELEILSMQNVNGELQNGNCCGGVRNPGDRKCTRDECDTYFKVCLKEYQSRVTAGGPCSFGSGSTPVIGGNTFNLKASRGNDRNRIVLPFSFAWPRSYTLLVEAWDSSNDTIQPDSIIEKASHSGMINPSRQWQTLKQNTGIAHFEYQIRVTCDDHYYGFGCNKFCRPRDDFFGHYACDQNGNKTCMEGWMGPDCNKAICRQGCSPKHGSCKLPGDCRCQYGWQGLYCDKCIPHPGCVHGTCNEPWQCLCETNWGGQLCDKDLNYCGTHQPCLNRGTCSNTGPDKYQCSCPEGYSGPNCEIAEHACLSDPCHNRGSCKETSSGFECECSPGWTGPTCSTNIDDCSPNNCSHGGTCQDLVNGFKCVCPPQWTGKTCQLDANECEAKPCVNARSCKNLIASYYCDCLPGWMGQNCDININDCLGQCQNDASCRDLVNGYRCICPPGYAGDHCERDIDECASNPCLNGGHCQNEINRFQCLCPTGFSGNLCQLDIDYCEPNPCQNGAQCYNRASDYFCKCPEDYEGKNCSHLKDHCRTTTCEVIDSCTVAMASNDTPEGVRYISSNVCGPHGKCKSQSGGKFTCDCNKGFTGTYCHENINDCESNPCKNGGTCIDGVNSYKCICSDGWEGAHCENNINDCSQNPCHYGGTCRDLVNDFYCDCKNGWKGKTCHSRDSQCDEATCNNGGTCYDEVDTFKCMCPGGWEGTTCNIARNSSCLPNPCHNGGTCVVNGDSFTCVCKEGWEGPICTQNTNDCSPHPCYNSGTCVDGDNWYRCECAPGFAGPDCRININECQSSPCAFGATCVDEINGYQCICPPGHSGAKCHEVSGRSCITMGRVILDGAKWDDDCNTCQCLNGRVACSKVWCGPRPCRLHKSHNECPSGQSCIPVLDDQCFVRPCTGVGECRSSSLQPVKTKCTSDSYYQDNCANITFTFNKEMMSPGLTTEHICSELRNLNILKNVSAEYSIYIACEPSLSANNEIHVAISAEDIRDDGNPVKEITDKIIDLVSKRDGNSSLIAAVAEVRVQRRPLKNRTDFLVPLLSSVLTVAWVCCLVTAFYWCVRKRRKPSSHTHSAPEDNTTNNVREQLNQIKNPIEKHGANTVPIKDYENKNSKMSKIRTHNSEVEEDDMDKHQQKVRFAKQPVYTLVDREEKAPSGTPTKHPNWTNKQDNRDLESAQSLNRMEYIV
# Method: (§2) FIG. 1. Identification of antibodies that bind to Jagged1 and/or Jagged2. Human HEK293 cells expressing human or mouse Jagged1 (Jag1) or Jagged2 (Jag2) and GFP were incubated with 64R1B, 64R7, 64M51 or control antibodies and phycoerythrin (PE) conjugated secondary antibody. Binding of antibodies to the Jagged-expressing cells was analyzed by flow cytometry. Shown are FACS analyses of antibody binding to the Jagged transfected cells. Binding is highlighted in each panel by the dark grey box insert.
# as §1
# mouse Jagged2 = target: T4, mouse Jagged2 (Mus musculus, UniProt Q9QYE5); test: FACS binding to Jagged-transfected HEK293 cells; conditions: HEK293 cells expressing mouse Jagged2; FIG. 1
# T4 construct: expressed in transfected cells; host or cells: HEK293
# T4 sequence (Q9QYE5 24-1247): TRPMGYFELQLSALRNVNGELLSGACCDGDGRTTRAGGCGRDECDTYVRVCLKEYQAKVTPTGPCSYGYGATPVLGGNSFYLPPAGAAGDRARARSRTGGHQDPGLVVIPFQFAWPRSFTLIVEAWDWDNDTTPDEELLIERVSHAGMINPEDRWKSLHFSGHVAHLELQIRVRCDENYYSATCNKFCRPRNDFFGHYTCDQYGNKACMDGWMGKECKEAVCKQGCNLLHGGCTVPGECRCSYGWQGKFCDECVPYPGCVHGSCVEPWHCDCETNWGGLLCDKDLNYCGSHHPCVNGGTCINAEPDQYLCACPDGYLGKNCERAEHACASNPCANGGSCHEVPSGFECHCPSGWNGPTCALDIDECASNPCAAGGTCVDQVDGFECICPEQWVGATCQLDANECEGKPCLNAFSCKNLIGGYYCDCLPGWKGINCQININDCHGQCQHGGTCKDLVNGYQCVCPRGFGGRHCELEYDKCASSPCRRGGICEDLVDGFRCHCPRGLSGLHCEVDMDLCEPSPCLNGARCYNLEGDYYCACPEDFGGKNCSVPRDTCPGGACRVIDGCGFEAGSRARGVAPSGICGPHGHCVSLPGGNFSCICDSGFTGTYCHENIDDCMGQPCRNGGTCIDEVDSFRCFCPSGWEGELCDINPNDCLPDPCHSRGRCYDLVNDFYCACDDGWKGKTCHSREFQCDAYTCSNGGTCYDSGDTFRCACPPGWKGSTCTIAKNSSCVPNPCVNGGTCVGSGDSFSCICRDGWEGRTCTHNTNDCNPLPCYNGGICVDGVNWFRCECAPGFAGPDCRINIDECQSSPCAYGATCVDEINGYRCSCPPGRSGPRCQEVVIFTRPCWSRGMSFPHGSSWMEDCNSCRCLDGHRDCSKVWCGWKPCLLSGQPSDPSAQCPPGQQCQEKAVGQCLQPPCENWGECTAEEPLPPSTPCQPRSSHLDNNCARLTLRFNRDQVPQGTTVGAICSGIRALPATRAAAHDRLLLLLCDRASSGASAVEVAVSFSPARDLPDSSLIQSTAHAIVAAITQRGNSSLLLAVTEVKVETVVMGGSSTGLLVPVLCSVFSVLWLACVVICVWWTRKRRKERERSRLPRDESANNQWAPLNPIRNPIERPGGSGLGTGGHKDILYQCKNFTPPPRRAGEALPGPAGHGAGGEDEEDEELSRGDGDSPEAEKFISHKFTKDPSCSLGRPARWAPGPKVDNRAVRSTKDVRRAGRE
# Method: as §2, §1
# human Jagged1 [3] = target: T1, human Jagged1; test: FACS-based blocking of Notch2-Fc binding to Jagged-expressing cells; conditions: HEK293 cells expressing human Jagged1, FIG. 2
# Method: (§3) To determine the effect of anti-Jagged antibodies on Jagged ligand binding to Notch receptors, a FACS-based assay was used. Human HEK293 cells were transfected with expression vectors encoding full-length cDNA for human Jagged1 or Jagged2, along with an expression vector encoding GFP. Transfected cells were incubated with recombinant Notch2-Fc fusion protein (containing the amino acids 375-608 of human Notch2 fused to the Fc region of human IgG1) in the presence or absence of 64M51, 64R7, 64R1B and 64M14 antibodies. Cells were washed in PBS and the binding of Notch2-Fc to transfected cells was detected by incubation with PE-conjugated anti-human Fc secondary antibody and analyzed by flow cytometry as described above.
# human Jagged2 [4] = target: T2, human Jagged2; test: as above; conditions: HEK293 cells expressing human Jagged2, FIG. 2
# Method: as §3
# [5] = tested on: human Jagged1-induced Notch2 activation; test: Notch-dependent luciferase reporter assay, plate-coated Jagged protein; format: cell-based; conditions: PC3 cells with Notch2 and 8xCBF-luciferase; coated Jagged 400 ng per well; antibody 40 to 0.039 μg/ml; FIG. 4A
# Description: (§4) The ability of anti-Jagged antibodies to inhibit Notch activation was investigated using a Notch-dependent luciferase reporter assay. Recombinant fusion proteins containing the extracellular domain of either human Jagged1 or rat Jagged1 fused to human Fc were generated by standard recombinant methods. Fusion proteins containing the extracellular domain of either human Jagged2 or mouse Jagged2 fused to human Fc were generated by standard recombinant methods. Human PC3 cells were transfected with an expression vector encoding a full-length Notch2 receptor as well as plasmids encoding a Notch-dependent firefly luciferase reporter construct (8×CBF-luciferase) and a Renilla luciferase reporter (Promega, Madison, Wis.) as an internal control for transfection efficiency. Purified Jagged proteins were coated onto 96 well plates at 400 ng per well, and Notch2-expressing PC3-luc cells were added to the wells. 64M51, 64R7 and 64R1B antibodies were serially diluted 1:4 from 40 to 0.039 μg/ml, added to the appropriate wells and incubated overnight. Luciferase activity was determined 18 hours later using a dual luciferase assay kit (Promega, Madison, Wis.) with firefly luciferase activity normalized to Renilla luciferase activity.
# [6] = tested on: human Jagged2-induced Notch2 activation; test: as above; format: cell-based; conditions: PC3 cells with Notch2 and 8xCBF-luciferase; coated Jagged 400 ng per well; antibody 40 to 0.039 μg/ml; FIG. 4B
# Description: as §4
# [7] = tested on: mouse Jagged2-induced Notch2 activation; test: as above; format: cell-based; conditions: PC3 cells with Notch2 and 8xCBF-luciferase; coated Jagged 400 ng per well; antibody 40 to 0.039 μg/ml; FIG. 4D
# Description: as §4
# [8] = tested on: rat Jagged1-induced Notch2 activation; test: as above; format: cell-based; conditions: PC3 cells with Notch2 and 8xCBF-luciferase; coated Jagged 400 ng per well; antibody 40 to 0.039 μg/ml; FIG. 4C
# Description: as §4
# PE13 breast tumor cells = test: PE13 breast tumor xenograft model; format: in vivo, NOD/SCID mice; conditions: FIG. 6
# Method: PE13 breast tumor cells were injected subcutaneously into the mammary fat pads of NOD/SCID mice. 10,000 cells were injected per animal. Mice were monitored weekly and tumors were allowed to grow until they were approximately 170 mm^3. The mice were randomized into four treatment groups (n=10 mice/group) and treated with either control antibody (LZ-1, directed against bacterial lysozyme), anti-Jagged 64M51, taxol or a combination of 64M51 and taxol. Taxol was administered intraperitoneally at a dose of 7.5 mg/kg once a week and antibodies were administered intraperitoneally at a dose of 15 mg/kg twice a week.
# [9] = tested on: PN17 pancreatic tumor cells; test: PN17 pancreatic tumor xenograft model; format: in vivo, NOD/SCID mice
# Method: PN17 pancreatic tumor cells were injected subcutaneously into the flanks of NOD/SCID mice. 10,000 cells were injected per animal. Mice were monitored weekly and tumors were allowed to grow until they were approximately 145 mm^3. The mice were randomized into four treatment groups (n=10 mice/group) and treated with either control antibody (LZ-1), anti-Jagged 64M51, gemcitabine or a combination of 64M51 and gemcitabine. Gemcitabine was administered intraperitoneally at a dose of 5 mg/kg once a week and antibodies were administered intraperitoneally at a dose of 15 mg/kg twice a week.
molecule,measurement,setting,value
B1,binding to human Jagged1 (FACS),human Jagged1 [1],bound
same,binding to human Jagged2 (FACS),human Jagged2 [2],bound
same,binding to mouse Jagged1 (FACS),mouse Jagged1,bound
same,binding to mouse Jagged2 (FACS),mouse Jagged2,bound
same,blocking of Notch2-Fc binding to Jagged1-expressing cells,human Jagged1 [3],blocked
same,blocking of Notch2-Fc binding to Jagged2-expressing cells,human Jagged2 [4],blocked
same,inhibition of human Jagged1-induced Notch2 activation,[5],did not inhibit
same,inhibition of human Jagged2-induced Notch2 activation,[6],partial inhibition
same,inhibition of mouse Jagged2-induced Notch2 activation,[7],"inhibited mouse Jagged2-induced Notch2 activations, but at a higher concentration of antibody than 64R7"
same,inhibition of rat Jagged1-induced Notch2 activation,[8],did not inhibit
same,"tumor growth, single agent relative to control antibody",PE13 breast tumor cells; antibody 15 mg/kg intraperitoneally twice a week,reduce tumor growth
same,"tumor growth, antibody in combination with taxol","PE13 breast tumor cells; antibody 15 mg/kg twice a week plus taxol 7.5 mg/kg once a week, vs either agent alone",reduced tumor growth to a level greater that either agent alone
same,"tumor growth, single agent","[9]; antibody 15 mg/kg twice a week or gemcitabine 5 mg/kg once a week, intraperitoneally, FIG. 7",no significant reduction in tumor growth
same,"tumor growth, antibody in combination with gemcitabine","[9]; antibody 15 mg/kg twice a week plus gemcitabine 5 mg/kg once a week, FIG. 7B",prolonged reduction in tumor growth

# Reference: patent publication US9416178B2, “Jagged-binding agents and uses thereof” (OncoMed Pharmaceuticals, Inc., priority 2009, dated 2016)
